“And” between values parts separate entries of the source, which are not always exact repeats. Equal entries are not always repeated. Where two headings read alike, the source gives them in different places.
Key:
[1] = tested on: IGF-1R-mediated signaling; assay: Cell-based receptor activation assay
Excerpt: Such drugs include orally bioavailable therapy for metabolic disease such as diabetes.

[2] = biological target: T1, IGF-1 (Homo sapiens, UniProt P05019); assay: NMR diffusion-based measurement of detergent binding to IGF-1
T1 sequence (P05019 49-118): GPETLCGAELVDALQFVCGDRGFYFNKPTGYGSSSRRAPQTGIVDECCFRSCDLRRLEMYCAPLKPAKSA

[3] = biological target: T1, IGF-1; assay: NMR chemical shift titration of detergent into IGF-1 solution; settings: titration into 0.5 mM IGF-1 solution
[4] = biological target: IGF-1 binding to IGFBP-1 (Homo sapiens, UniProt P05019); assay: IGF-1 phage ELISA: residual binding of IGF-1 on phage to immobilized IGFBP-1
IGF-1 binding to IGFBP-1, sequence (P05019 49-118): as above

[5] = biological target: IGF-1 binding to IGFBP-3 (Homo sapiens, UniProt P05019); assay: IGF-1 phage ELISA: residual binding of IGF-1 on phage to immobilized IGFBP-3
IGF-1 binding to IGFBP-3, sequence (P05019 49-118): as above

`C[C@H](CCC(=O)N(CCCNC(=O)[C@H](O)[C@@H](O)[C@H](O)[C@H](O)CO)CCCNC(=O)[C@H](O)[C@@H](O)[C@H](O)[C@H](O)CO)[C@H]1CC[C@H]2[C@@H]3CC[C@@H]4C[C@H](O)CC[C@]4(C)[C@H]3C[C@H](O)[C@]12C` was tested, and the “inhibition of IGF-1R-mediated signaling” value [1] was “does not inhibit”, the Kd ([2]; read-out: Kd for interaction of detergent with IGF-1 (overall NMR-based estimate), estimate over three protein concentrations) was 300 µM and ~300 µM and the Kd ([2]; read-out: Kd for interaction of detergent with IGF-1, 0.125 mM IGF-1, 2 molar equivalents of detergent, 40° C., pH 6.5) was 430 µM. For the same compound, the Kd ([2]; read-out: Kd for interaction of detergent with IGF-1, 0.25 mM IGF-1, 2 molar equivalents of detergent, 40° C., pH 6.5) was 440 µM, the Kd ([2]; read-out: Kd for interaction of detergent with IGF-1, 0.5 mM IGF-1, 2 molar equivalents of detergent, 40° C., pH 6.5) was 220 µM and the “affinity for IGF-1 from chemical shift changes” value [3] was “submillimolar”. For the same compound, the “inhibition of IGFBP-1 binding to IGF-1 (preliminary results, Example 1)” value ([4]; preliminary results) was “does not inhibit binding”, the IC50 ([4]; read-out: IC50, inhibition of IGF-1 on phage binding to IGFBP-1, plate-based ELISA, CMC 1.4 mM is upper limit on curve) was 480 ± 170 µM and the “inhibition of IGFBP-3 binding to IGF-1 (preliminary results, Example 1)” value [5] was “does not inhibit binding”.

From patent publication US7238658B2 (Genentech, Inc., priority 2001, dated 2007)
